{"source": "the supplement of paper PMC3724861", "note": "The other results are listed elsewhere or left out."}
{"tested_on": "T1, Caupolican (Caup) homeodomain DNA-binding domain", "T1 sequence": "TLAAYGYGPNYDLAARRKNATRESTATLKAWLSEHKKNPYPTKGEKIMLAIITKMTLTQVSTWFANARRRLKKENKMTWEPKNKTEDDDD", "experiment": "PBM E-score (8-mer, recovered from the published 9-mer minima) (E-score (dimensionless, -0.5 to 0.5)); Drosophila protein; higher = stronger relative binding preference, active = 0.31 or more", "in_short": "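An enrichment score, with higher meaning stronger, expresses relative binding preference for each short DNA word. The protein used was Caup's homeodomain DNA-binding domain (residues 214-303), produced by in vitro transcription and translation and tested at 100 nM on custom-designed protein binding microarrays. The 8-mer values were recovered from published 9-mer scores, each equal to the lower of its two constituent 8-mer scores.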"}
{"sequence": "AGTACGGA", "PBM E-score": "inactive: -0.0156"}
{"sequence": "ACAGCCCG", "PBM E-score": "inactive: -0.16"}
{"sequence": "AAAACAGT", "PBM E-score": "inactive: 0.11"}
{"sequence": "ATAGTCTC", "PBM E-score": "inactive: 0.074"}
{"sequence": "AAAGCTTT", "PBM E-score": "inactive: 0.0082"}
{"sequence": "CGGGGTAG", "PBM E-score": "inactive: -0.138"}
{"sequence": "AATTATTC", "PBM E-score": "inactive: 0.16"}
{"sequence": "GCAGATTA", "PBM E-score": "inactive: 0.0156"}
{"sequence": "CAGTGCCG", "PBM E-score": "inactive: -0.179"}
{"sequence": "AAATCGCA", "PBM E-score": "inactive: -0.0788"}
{"sequence": "AGAAATTC", "PBM E-score": "inactive: -0.0621"}
{"sequence": "ACCACCAC", "PBM E-score": "inactive: 0.0458"}
{"sequence": "AGCTAAGG", "PBM E-score": "inactive: -0.086"}
{"sequence": "CGGTTTCA", "PBM E-score": "inactive: 0.0244"}
{"sequence": "CGCTGCCC", "PBM E-score": "inactive: -0.255"}
{"sequence": "CCTTGTGA", "PBM E-score": "inactive: 0.0778"}
{"sequence": "CACAACGA", "PBM E-score": "inactive: 0.0624"}
{"sequence": "CAAGGTGG", "PBM E-score": "inactive: -0.0224"}
{"sequence": "CACGTATC", "PBM E-score": "inactive: 0.152"}
{"sequence": "CAGGGTCA", "PBM E-score": "inactive: -0.122"}
{"sequence": "ATGGAGGA", "PBM E-score": "inactive: -0.0214"}
{"sequence": "GAGGCCTA", "PBM E-score": "inactive: -0.236"}
{"sequence": "CTGAGCGA", "PBM E-score": "inactive: -0.0733"}
{"sequence": "AGGGCGCA", "PBM E-score": "inactive: -0.236"}
{"sequence": "GGTAAAAC", "PBM E-score": "inactive: 0.108"}
{"sequence": "ACAATCCG", "PBM E-score": "inactive: 0.117"}
{"sequence": "CTAGCAAG", "PBM E-score": "inactive: 0.0447"}
{"sequence": "GGAGAACA", "PBM E-score": "inactive: 0.13"}
{"sequence": "CAAACCTG", "PBM E-score": "inactive: 0.0411"}
{"sequence": "AAATCCAA", "PBM E-score": "inactive: 0.0536"}
{"sequence": "ATAACTGG", "PBM E-score": "inactive: -0.0609"}
{"sequence": "GAAGGAGA", "PBM E-score": "inactive: 0.00976"}
{"sequence": "CAGAGAGA", "PBM E-score": "inactive: -0.014"}
{"sequence": "TAACGACA", "PBM E-score": "inactive: 0.296"}
{"sequence": "GTAGCTCA", "PBM E-score": "inactive: -0.0292"}
{"sequence": "GCCTATCC", "PBM E-score": "inactive: -0.118"}
{"sequence": "CCCTAGAG", "PBM E-score": "inactive: -0.129"}
{"sequence": "ATCAAAGA", "PBM E-score": "inactive: 0.028"}
{"sequence": "GATTCGGC", "PBM E-score": "inactive: -0.0366"}
{"sequence": "ATATTAGG", "PBM E-score": "inactive: 0.176"}
{"sequence": "AGCATGTC", "PBM E-score": "active: 0.376"}
{"sequence": "GGATAACA", "PBM E-score": "inactive: 0.238"}
{"sequence": "ACGTTCAA", "PBM E-score": "≥ 0.0706"}
{"sequence": "ATTGCAAT", "PBM E-score": "inactive: 0.05"}
{"sequence": "ATCGACAA", "PBM E-score": "inactive: 0.206"}
{"sequence": "AGTACCCC", "PBM E-score": "inactive: -0.117"}
{"sequence": "AGGATGGA", "PBM E-score": "inactive: -0.124"}
{"sequence": "CAGTTGTC", "PBM E-score": "inactive: 0.224"}
{"sequence": "GGACTGCA", "PBM E-score": "inactive: -0.083"}
{"sequence": "GTATCAGA", "PBM E-score": "inactive: 0.118"}
{"sequence": "CTTCGAAC", "PBM E-score": "inactive: -0.0385"}
{"sequence": "GCCACTCA", "PBM E-score": "inactive: -0.0797"}
{"sequence": "GACTCACC", "PBM E-score": "inactive: -0.18"}
{"sequence": "TATAGGAA", "PBM E-score": "inactive: 0.109"}
{"sequence": "ACATCAGC", "PBM E-score": "inactive: 0.105"}
{"sequence": "CGGACCCC", "PBM E-score": "inactive: -0.286"}
{"sequence": "GACTAGAA", "PBM E-score": "inactive: 0.0801"}
{"sequence": "CTTGGGTA", "PBM E-score": "inactive: -0.0204"}
{"sequence": "ATCGGCGG", "PBM E-score": "inactive: -0.207"}
{"sequence": "ATCCCATC", "PBM E-score": "inactive: -0.00982"}
{"sequence": "AAACTAAT", "PBM E-score": "inactive: 0.185"}
{"sequence": "ATCTTCGG", "PBM E-score": "inactive: 0.00377"}
{"sequence": "GTTACAAC", "PBM E-score": "inactive: 0.303"}
{"sequence": "ACGTGCCT", "PBM E-score": "inactive: -0.0447"}
{"sequence": "ATTTGGGA", "PBM E-score": "inactive: -0.0177"}
{"sequence": "AATCGAAC", "PBM E-score": "inactive: 0.134"}
{"sequence": "ATGTCAAT", "PBM E-score": "active: 0.359"}
{"sequence": "GAGTGGTA", "PBM E-score": "inactive: 0.018"}
{"sequence": "GTCCCCAC", "PBM E-score": "inactive: -0.132"}
{"sequence": "AGCCTGCG", "PBM E-score": "inactive: -0.158"}
{"sequence": "ACGGGTCA", "PBM E-score": "inactive: -0.115"}
{"sequence": "ATGGAAAA", "PBM E-score": "inactive: 0.127"}
{"sequence": "ATTTGTGA", "PBM E-score": "inactive: 0.074"}
{"sequence": "AAATTGAT", "PBM E-score": "inactive: 0.0364"}
{"sequence": "TCCTGCCA", "PBM E-score": "inactive: -0.0781"}
{"sequence": "GAGCTAAA", "PBM E-score": "inactive: -0.00706"}
{"sequence": "CCTGATCG", "PBM E-score": "inactive: -0.00823"}
{"sequence": "GAAAAGGA", "PBM E-score": "inactive: 0.0322"}
{"sequence": "ATAGCCAG", "PBM E-score": "inactive: -0.0483"}
{"sequence": "AACATCCA", "PBM E-score": "≥ 0.295"}
{"sequence": "ATCAATGC", "PBM E-score": "inactive: 0.0455"}
{"sequence": "GGACAAAC", "PBM E-score": "inactive: 0.143"}
{"sequence": "ACATCAAC", "PBM E-score": "inactive: 0.235"}
{"sequence": "AAACCCAG", "PBM E-score": "inactive: -0.00288"}
{"sequence": "CCACCAAG", "PBM E-score": "inactive: -0.178"}
{"sequence": "GACCAAGC", "PBM E-score": "inactive: -0.122"}
{"sequence": "AATAACAC", "PBM E-score": "inactive: 0.284"}
{"sequence": "GAAGTTAA", "PBM E-score": "inactive: 0.0374"}
{"sequence": "CAAACCAC", "PBM E-score": "inactive: -0.0305"}
{"sequence": "ACATCAAT", "PBM E-score": "active: 0.316"}
{"sequence": "AGGCTGAG", "PBM E-score": "inactive: -0.105"}
{"sequence": "CCAAAGTA", "PBM E-score": "inactive: 0.0808"}
{"sequence": "CCGGGAGC", "PBM E-score": "inactive: -0.282"}
{"sequence": "CGCTGTGC", "PBM E-score": "inactive: -0.176"}
{"sequence": "CAACATCC", "PBM E-score": "inactive: 0.238"}
{"sequence": "CGACAAGC", "PBM E-score": "inactive: 0.224"}
{"sequence": "ATGATCTG", "PBM E-score": "inactive: 0.118"}
{"sequence": "AGGGACCT", "PBM E-score": "inactive: -0.105"}
{"sequence": "ACAACTGC", "PBM E-score": "inactive: 0.167"}
{"sequence": "AAATACAT", "PBM E-score": "active: 0.338"}
{"sequence": "TAAACATA", "PBM E-score": "active: ≥ 0.367"}
{"sequence": "CCGGTCGA", "PBM E-score": "inactive: -0.211"}
{"sequence": "AAACATAA", "PBM E-score": "active: 0.321"}
{"sequence": "ATAGGGAG", "PBM E-score": "inactive: -0.179"}
{"sequence": "ATAATCCA", "PBM E-score": "≥ 0.177"}
{"sequence": "GGGTACGA", "PBM E-score": "inactive: -0.031"}
{"sequence": "ATCTACAT", "PBM E-score": "inactive: 0.29"}
{"sequence": "ATATCCAG", "PBM E-score": "inactive: 0.0929"}
{"sequence": "CCCACTTC", "PBM E-score": "inactive: -0.132"}
{"sequence": "AGGGCGTA", "PBM E-score": "inactive: -0.103"}
{"sequence": "ATCCTACG", "PBM E-score": "inactive: -0.0683"}
{"sequence": "CGTGCCGA", "PBM E-score": "inactive: -0.102"}
{"sequence": "TACAAGTA", "PBM E-score": "active: ≥ 0.407"}
{"sequence": "GCACCGGC", "PBM E-score": "inactive: -0.171"}
{"sequence": "ATTCACGA", "PBM E-score": "inactive: 0.13"}
{"sequence": "GCCGCCGA", "PBM E-score": "inactive: -0.132"}
{"sequence": "AGGGATAA", "PBM E-score": "inactive: 0.0625"}
{"sequence": "GACCCTGC", "PBM E-score": "inactive: -0.23"}
{"sequence": "CGGTAGGA", "PBM E-score": "inactive: -0.0619"}
{"sequence": "AGGCAAAG", "PBM E-score": "inactive: -0.0384"}
{"sequence": "AATGGAGA", "PBM E-score": "inactive: -0.0659"}
{"sequence": "ACTAGTCT", "PBM E-score": "inactive: 0.159"}
{"sequence": "ATTTGTTG", "PBM E-score": "inactive: 0.253"}
{"sequence": "CGTAAGTC", "PBM E-score": "inactive: -0.0201"}
{"sequence": "ACCATTCG", "PBM E-score": "inactive: 0.0359"}
{"sequence": "ATTGCAAA", "PBM E-score": "inactive: 0.139"}
{"sequence": "GGGAAAAC", "PBM E-score": "inactive: -0.0348"}
{"sequence": "GCCGGCCC", "PBM E-score": "inactive: -0.278"}
{"sequence": "GACTGTCC", "PBM E-score": "inactive: -0.0666"}
{"sequence": "CAAGCTTA", "PBM E-score": "inactive: -0.0396"}
{"sequence": "TATGACAA", "PBM E-score": "active: 0.314"}
{"sequence": "CAATCAGG", "PBM E-score": "inactive: -0.0966"}
{"sequence": "CGGTTAGC", "PBM E-score": "inactive: -0.159"}
{"sequence": "ATTAAGTA", "PBM E-score": "inactive: 0.145"}
{"sequence": "CGTTAATA", "PBM E-score": "inactive: 0.0428"}
{"sequence": "GGGACAAC", "PBM E-score": "inactive: 0.178"}
{"sequence": "GACTAAGC", "PBM E-score": "inactive: -0.186"}
{"sequence": "CAGCTACA", "PBM E-score": "inactive: 0.24"}
{"sequence": "GCCTTGCC", "PBM E-score": "inactive: -0.232"}
{"sequence": "CAATACGA", "PBM E-score": "inactive: 0.122"}
{"sequence": "ACGGTCTG", "PBM E-score": "≥ 0.0373"}
{"sequence": "GTGCCCAA", "PBM E-score": "inactive: -0.0344"}
{"sequence": "GAGTATAC", "PBM E-score": "inactive: 0.199"}
